The record followed here is PubChem BioAssay AID1508642 (National Center for Advancing Translational Sciences (NCATS), 2021).

SMILES strings stand for the structures. Among all 43,000 compounds or so, about 200 (0.47%) were called active. Roughly 12% stayed inconclusive and do not appear here. Calls follow the shape of the dose curve; as a rule, active = well fitted cell-killing curve with a large enough effect; inconclusive = small, poorly fitted or top-dose-only effect, or effect the other way; inactive = flat fitted curve, though single readings scatter. The list shows a part of the results.
% is scaled to controls: 0 for no effect and ±100 for the full control effect; potency is read from the fitted curve at half-maximal effect.

A short description of the test: Cell viability qHTS assay in S16 Pmp22-F2sN cells. Also: nearly all actives have a fitted effect of over 65% in size. The note with it: S16 Pmp22-F2sN Schwann cells viability, CellTiter-Glo, 24 h; series mostly up to 57.5 µM; activity change, negative = cytotoxicity: at the top concentration. In a few lines:
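S16 Pmp22-F2sN Schwann cells (500-1,000/well) in phenol-red-free DMEM with 10% FBS received 23 nL compound by pin tool for 24 h at 37 °C. Viability was then read as CellTiter-Glo luminescence after 15 min at room temperature.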
For orientation: Quantitative high-throughput screening tests each substance at several concentrations.
On to `COc1ccccc1NC(=O)c1c(-c2ccc(C)cc2)nnc2ccccc12`, for which the “activity change, negative = cytotoxicity” value was inactive: -0.357%.

As for `Cc1ccc(Nc2c(-c3ccccn3)nc3ccc(Br)cn23)cc1`, the “activity change, negative = cytotoxicity” value was inactive: 0.927%. Same read-out and setting: the same measure for `CCC(=O)N1CCc2cc(Br)cc(S(=O)(=O)N3CCCC(C(=O)Nc4ccc(C)c(F)c4)C3)c21` (configuration not stated): inactive: -2.09%; for `COCCN(CCOC)S(=O)(=O)c1ccc(C(=O)Nc2sc3c(c2C(N)=O)CCCC3)cc1`: inactive: -1.11%; for `CCCn1c(=N)c(C(=O)NCC2CCCO2)cc2c(=O)n3cc(C)ccc3nc21` (configuration not stated): inactive: 8.34%. The same measure, in the same setting: the same measure for `Cc1cccc(-c2nc(SCc3cc(=O)c4c(C)cc(C)cc4[nH]3)n[nH]2)c1`: inactive: 4.23%; for `CCCNC(=O)c1ccc2c(c1)N=C(CCC)c1ccccc1S2`: inactive: 2.96%; for `COc1cccc(NC(=O)Cn2nc(N3CCN(c4ccccc4)CC3)ccc2=O)c1`: inactive: 4.23%.

With `Cc1ccc(Cl)cc1-n1ncc2c(NCCc3ccccc3)ncnc21`, the “activity change, negative = cytotoxicity” value was inactive: -0.288%.

Consider `O=C(Cn1nc2c(cc1=O)CCCC2)NCc1ccc(Cl)cc1`, for which the “activity change, negative = cytotoxicity” value was inactive: -14.6%. With `Cc1cccc(CSc2cn(CC(=O)N3CCOCC3)c3ccccc23)c1`, the “activity change, negative = cytotoxicity” value is inactive: 6.72%.

Turning to `O=C(Cn1ncc2c3ccccc3n(Cc3ccccc3)c2c1=O)NCCc1ccc(Cl)cc1`, the “activity change, negative = cytotoxicity” value is inactive: 16.9%. Still for that read-out and setting: the same measure for `COc1ccc(S(=O)(=O)N2CCC(c3nc4ccccc4s3)CC2)cc1OC`: inactive: 3.64%. Still for that read-out and setting: the same measure for `Cc1ccc(CCNC(=O)C2CCN(S(=O)(=O)c3ccc4c(ccn4C)c3)CC2)cc1`: inactive: -1.59%; for `Cc1ccc(-c2nc3c4c(-c5ccccc5)c(-c5ccccc5)oc4ncn3n2)cc1`: inactive: -4.27%. On the same count and under the same terms, the same measure for `Cc1ccc(CNC(=O)CSc2nc3ccccc3nc2Cc2ccc(C)cc2)cc1`: inactive: 8.65%; for `CCOc1ccc(NC(=O)c2c(C)oc3nc(C)nc(N4CCOCC4)c23)cc1`: inactive: 11.1%; for `COc1ccc(NC(=O)CSc2nc(C)cc(C)c2C(=O)Nc2ccccc2OC)cc1`: inactive: 8.84%. With `COc1ccc(S(=O)(=O)NCC(c2ccco2)S(=O)(=O)c2cccs2)cc1F` (configuration not stated), the Potency is active: 12.6 µM. Take `COc1ccc(-n2c(SCC(=O)NCc3ccc(F)cc3)nc3c([nH]c4ccccc43)c2=O)cc1`: the “activity change, negative = cytotoxicity” value is inactive: 2.75%. On the same count and under the same terms, the same measure for `O=C(CCSCc1cccc(Cl)c1)NCCc1ccc(Cl)cc1`: inactive: 3.82%; for `O=C(c1ccccc1)N1CCc2cc(CNS(=O)(=O)c3ccc(Cl)s3)ccc21`: inactive: -0.591%; for `CC(=O)Nc1cccc(NC(=O)Cn2cnc3c(oc4ccccc43)c2=O)c1`: inactive: 2.79%. On the same count and under the same terms, the same measure for `Cn1c(=O)n(C)c2cc(N3CCOCC3)c(NS(=O)(=O)c3cccc(C#N)c3)cc21`: inactive: -11.6%; for `Cc1nn2cc(-c3ccc(OC(C)C)cc3)nc2s1`: inactive: 9.19%; for `Cc1oc(-c2ccc(Cl)cc2)nc1Cn1c(=O)cc(C)c2c(C)nn(-c3ccccc3)c21`: inactive: 4.78%. The same measure, in the same setting: the same measure for `CCC(=O)Nc1nnc(S(=O)(=O)N2c3ccccc3CC2C)s1` (configuration not stated): inactive: 3.43%. In the case of `Cc1ccc(CNc2nc3ccccc3n3cnnc23)cc1`, the “activity change, negative = cytotoxicity” value is inactive: -4.28%. Still for that read-out and setting: the same measure for `Cc1csc2nc(COC(=O)c3ccc(NC(=O)C(C)Oc4ccccc4)cc3)cc(=O)n12` (configuration not stated): inactive: 4.54%; for `CCC(=O)N1c2ccccc2CC1C(=O)NCc1cc(Br)ccc1OC` (configuration not stated): inactive: 20.5%. Still for that read-out and setting: the same measure for `Cc1ccc2oc3c(c(=O)c2c1)C(c1ccc(O)cc1)N(c1nc(C)c(C)s1)C3=O` (configuration not stated): inactive: -12.8%; for `Cc1cccc(NC(=O)C2CCCN2S(=O)(=O)c2ccc3c(c2)n(C)c(=O)c(=O)n3C)c1` (configuration not stated): inactive: -0.978%; for `Cc1cc(C)c2oc(-c3cccc(NC(=O)c4ccc(-c5cccc([N+](=O)[O-])c5)o4)c3)nc2c1`: inactive: 14.6%. On the same count and under the same terms, the same measure for `O=C(NCc1cccc(F)c1)c1ccccc1NC(=O)c1nsc2ccccc12`: inactive: -1.27%. On to `COc1ccc(NC(=O)c2cnc(N3CCCC3)nc2)cc1OC`, for which the “activity change, negative = cytotoxicity” value is inactive: 2.56%. With `CCCC1=Nc2cc(C(=O)N3CCC(C(=O)OCC)CC3)ccc2Sc2ccccc21`, the “activity change, negative = cytotoxicity” value was inactive: 25.5%. The same measure, in the same setting: the same measure for `Cc1ccc2nc(-c3ccccn3)c(Nc3ccccc3C)n2c1`: inactive: -20.5%.

For the molecule `CCCN1CCc2nc(N3CCN(C)CC3)ncc2C1`, the “activity change, negative = cytotoxicity” value was inactive: -1.88%. The same measure, in the same setting: the same measure for `CCN(CC)c1nn2c(=O)c(C(=O)NCCc3cccc(C)c3)cnc2s1`: inactive: 2.17%; for `Fc1cccc(CSc2ccc(-c3cccs3)nn2)c1`: inactive: 4.2%. The same measure, in the same setting: the same measure for `COc1ccc(S(=O)(=O)NCCc2csc3nc(-c4ccccc4)nn23)cc1OC`: inactive: 16.5%; for `Cc1cccc(Cn2c(=O)n(-c3ccccc3C)c(=O)c3c2c2cc(C)ccc2n3C)c1`: inactive: 6.03%. `CCc1cccc(C)c1NS(=O)(=O)c1ccc2c(c1)CC(C)N2C(=O)C1CC1` (configuration not stated): the “activity change, negative = cytotoxicity” value was inactive: -0.519%. On the same count and under the same terms, the same measure for `COc1ccc(-c2noc(CSc3nc4ccccc4[nH]3)n2)cc1OC`: inactive: -14.5%. With `COc1ccc(OC(=O)c2nc(SCc3ccccc3C)ncc2Cl)cc1`, the “activity change, negative = cytotoxicity” value was inactive: -12.2%. Same read-out and setting: the same measure for `Cc1ccccc1OCC(=O)Nc1ccccc1OCc1cc(=O)n2ccccc2n1`: inactive: 2.29%; for `Cc1ccc(S(=O)(=O)NCCc2nnc3ccc(SCC(=O)Nc4ccc(F)cc4F)nn23)cc1`: inactive: 5.31%. Still for that read-out and setting: the same measure for `COc1ccc(CCNC(=O)CCc2c(C)nc3cc(-c4cccc(F)c4)nn3c2C)cc1OC`: inactive: -0.695%. The same measure, in the same setting: the same measure for `CCOC(=O)Cn1c(=O)n(CC2CCCO2)c2nc(-c3cc(OC)ccc3OC)nc(C(N)=O)c21` (configuration not stated): inactive: 6.56%; for `CC(C)c1nn2c(=O)cc(COC(=O)c3ccc(NC(=O)c4cccs4)cc3)nc2s1`: inactive: -1.8%; for `CCCOc1ccc(C(=O)N(Cc2ccco2)Cc2ccco2)cc1`: inactive: -9.19%. With `O=C(NCC(c1cccs1)S(=O)(=O)c1cccs1)c1c(F)cccc1F` (configuration not stated), the “activity change, negative = cytotoxicity” value was inactive: -0.902%. On the same count and under the same terms, the same measure for `COc1ccccc1-n1c(=O)n(C)c2c(C(N)=O)nc(-c3cccc(OC)c3OC)nc21`: inactive: 15.3%; for `COc1cccc(CSc2nc3n(n2)C(CC(C)C)C(C(=O)Nc2ccccc2C)=C(C)N3)c1` (configuration not stated): inactive: 4.67%.

As for `COc1ccc(C(=O)Nc2cccc(C(=O)OCc3cc(=O)n4c5c(sc4n3)CCCC5)c2)cc1`, the “activity change, negative = cytotoxicity” value is inactive: 5.16%. For `Cc1ccc(CCNC(=O)CCCc2nnc3n(C)c(=O)c4sccc4n23)cc1`, the “activity change, negative = cytotoxicity” value was inactive: -1.31%.

On to `Cc1cc(C)c2c(CC(=O)Nc3cc(C(F)(F)F)ccc3Cl)coc2c1`, for which the “activity change, negative = cytotoxicity” value was inactive: -7.41%. As to `CC(NC(=O)c1ccc2c(c1)sc1nc(-c3ccc(F)cc3)cn12)C12CC3CC(CC(C3)C1)C2` (configuration not stated), the “activity change, negative = cytotoxicity” value is inactive: 4.11%.

Turning to `COc1cc(OC)c(NC(=O)CCc2c(C)nc3c4c(C)cc(C)nc4nn3c2C)cc1Cl`, the “activity change, negative = cytotoxicity” value was inactive: 1.56%. Same read-out and setting: the same measure for `COc1cc(NC(=O)C2CCN(S(=O)(=O)c3c(C)noc3/C=C/c3ccccc3F)CC2)cc(OC)c1OC`: inactive: -21.9%; for `COc1cccc(/C=C/c2nc(C#N)c(N3CCN(C)CC3)o2)c1`: inactive: 0.993%.

On to `CC1Cn2c(C(=O)NCc3ccccc3Cl)cc3cccc(c32)S1` (configuration not stated), for which the “activity change, negative = cytotoxicity” value is inactive: -3.88%.
